Source: PMC4336329 (PLoS ONE, 2015)
Out of some 310,000 compounds screened, about 14,000 (4.5%) showed an effect of 50% or more. Effects have a minus sign here. The list shows a part of the results.

Molecular target: human ether-à-go-go-related gene (hERG) potassium channel (human, UniProt Q12809)
Experiment: primary screen, population patch clamp on CHO cells stably expressing hERG
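Further: peak tail current of the secondary pulse compared with the same well before compound.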

Sequence of human ether-à-go-go-related gene (hERG) potassium channel (Q12809 whole entry, looked up): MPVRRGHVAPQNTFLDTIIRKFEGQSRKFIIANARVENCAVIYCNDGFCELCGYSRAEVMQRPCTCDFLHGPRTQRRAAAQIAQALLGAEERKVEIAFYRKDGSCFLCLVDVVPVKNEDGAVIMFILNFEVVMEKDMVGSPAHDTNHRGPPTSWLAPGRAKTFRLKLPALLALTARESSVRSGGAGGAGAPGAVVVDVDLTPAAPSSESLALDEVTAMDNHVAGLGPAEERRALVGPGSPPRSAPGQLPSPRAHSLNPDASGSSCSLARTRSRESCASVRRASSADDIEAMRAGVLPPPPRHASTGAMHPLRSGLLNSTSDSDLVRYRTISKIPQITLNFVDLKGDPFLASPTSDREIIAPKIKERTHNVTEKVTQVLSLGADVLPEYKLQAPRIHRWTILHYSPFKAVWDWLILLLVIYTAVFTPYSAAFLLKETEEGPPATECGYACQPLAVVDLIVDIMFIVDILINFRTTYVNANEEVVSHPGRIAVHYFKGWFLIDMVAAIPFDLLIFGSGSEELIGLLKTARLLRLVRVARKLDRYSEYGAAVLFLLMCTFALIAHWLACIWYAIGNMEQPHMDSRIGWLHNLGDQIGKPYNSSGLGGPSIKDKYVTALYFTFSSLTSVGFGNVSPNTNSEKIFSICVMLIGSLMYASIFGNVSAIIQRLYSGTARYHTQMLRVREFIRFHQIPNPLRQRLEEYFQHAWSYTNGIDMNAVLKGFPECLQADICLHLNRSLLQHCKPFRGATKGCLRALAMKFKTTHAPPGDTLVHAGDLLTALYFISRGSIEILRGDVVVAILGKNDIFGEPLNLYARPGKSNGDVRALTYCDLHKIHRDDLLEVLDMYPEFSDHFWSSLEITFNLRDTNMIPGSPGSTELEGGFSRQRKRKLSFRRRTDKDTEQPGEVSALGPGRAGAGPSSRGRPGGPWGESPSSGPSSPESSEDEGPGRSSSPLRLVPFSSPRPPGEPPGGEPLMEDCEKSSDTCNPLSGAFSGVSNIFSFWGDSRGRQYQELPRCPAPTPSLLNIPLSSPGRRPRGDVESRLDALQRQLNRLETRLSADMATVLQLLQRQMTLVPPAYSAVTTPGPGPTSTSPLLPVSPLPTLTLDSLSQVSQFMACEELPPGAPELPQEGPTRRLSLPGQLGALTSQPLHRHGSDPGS

SMILES	hERG current change (%, negative = inhibition) at 10uM [%]
Cc1nc(-c2ccccc2)sc1-c1ccn[nH]1	25
Cc1ccc(-n2nc3c(=O)n(CC(=O)NCc4ccccc4Cl)nc(C)c3c2C)cc1	13.8
COc1ccc(N2CCN(C(=O)C3CCCN(S(=O)(=O)c4ccc(C)cc4)C3)CC2)cc1 (centres unmarked)	-53.4
COC(=O)/C=C1\SC(=NC(=O)c2ccc(OC)cc2)NC1=O	-1.49
Cc1ccc(/C=C/C(=O)N2CCN(S(=O)(=O)c3c(C)c(C)cc(C)c3C)CC2)o1	-28.3
COc1ccc(Br)cc1/C=N/Nc1ccc(Cl)c(C(=O)O)c1	-1.59
N#CN/C(=N\S(=O)(=O)c1ccccc1)c1ccccc1	21
CC(=O)Nc1ccc(S(=O)(=O)NCc2ccc(C(=O)N3CCOCC3)cc2)cc1	8.95
COc1ccc(-c2nnc(NC(=O)c3cccs3)s2)c(OC)c1	19.4
Cc1cc(C)c(S(=O)(=O)N2CCCC2=O)cc1N(C)S(C)(=O)=O	14.9
Cc1ccc(S(=O)(=O)N2CCOC2CNC(=O)C(=O)NCc2ccncc2)cc1 (centres unmarked)	0.198
CCOC(=O)C1=C(C)N(C)C(=O)NC1c1ccccc1OC (centres unmarked)	-12.1
CSCC[C@H](NC(=O)C1CCN(S(=O)(=O)c2ccc(C)cc2)CC1)C(=O)NC1CCS(=O)(=O)C1 (some centres unmarked)	6.54
Cc1nc(CC(=O)c2ccc(O)c(C)c2O)cs1	-7.55
CCCCOC(=O)c1nnc(-c2ccccc2)o1	4.69
CCCCn1c(N)c(N(CCOC)C(=O)C2CCN(S(=O)(=O)c3ccc(C)cc3C)CC2)c(=O)[nH]c1=O	5.28
CC(=O)OC1COC(N2CCc3ccccc32)C(OC(C)=O)C1OC(C)=O (centres unmarked)	18.5
COc1ccccc1/C=C/C(=O)Nc1ccc(N2CCOCC2)cc1	11.3
CCN(C(=O)COC(=O)CNC(=O)c1sc2ccccc2c1Cl)C1CCCCC1	8.33
CC(C)C[C@H](CO)Nc1nc(Nc2cccc(Cl)c2)c2ncn(C(C)C)c2n1	3.24
Cc1occc1C(=O)NC1CCCc2ccccc21 (centres unmarked)	-4.3
O=C(Nc1ccc2c(c1)OCCO2)c1ccc(CN2CCOCC2)cc1	7.21

SMILES	hERG current change (%, negative = inhibition) at 10uM [%]
CCc1nnc(NC(=O)CSc2nccn2-c2ccccc2)s1	-10.5
CN1CCN(c2ccc([N+](=O)[O-])cc2Cl)CC1	-52.2
O=C(CCS(=O)(=O)c1ccc(Br)cc1)NCc1ccco1	-0.399
COc1ccc(N2CCN(Cc3nc4ccccc4n3C)CC2)cc1	-18.2
Cc1ccc2sc(NNC(=O)C3COc4ccccc4O3)nc2c1C (centres unmarked)	7.62
Cc1nnc2sc(SCC(=O)N3CCC(C)CC3)nn2c1=O	0.929
COc1cc2c(cc1OC)-c1cc(Nc3ccccc3C)nc(=O)n1CC2	-7.32
Cc1cc(C(C)(C)C)oc1C(=O)N(CC(=O)NC1CCCC1)Cc1ccc(F)cc1	12.4
CCN1CCN(c2ncnc3c2c(-c2ccccc2)cn3-c2ccc(F)cc2)CC1	-74.5
CC1(C(=O)OCC(=O)NC(=O)NCc2ccccc2)CC1(Cl)Cl (centres unmarked)	4.66
CCN1C(=O)C(CC(=O)NC)N(NC(=O)c2ccccc2)C1=S (centres unmarked)	-2.64
CCOc1cc(N2CCOCC2)c(OCC)cc1NC(=O)C(NC(=O)c1ccco1)C(C)C (centres unmarked)	-9.63
O=C(COc1ccc(-c2nnc(N3CCCCC3)c3ccccc23)cc1)N1CCCCC1	-32.3
COc1ccc(C(Nc2ccc(S(=O)(=O)NCC3CCCO3)cc2)C(=O)NC(C)(C)C)cc1OC (centres unmarked)	11.5
CCN(C(=O)COC(=O)c1c(NC(C)=O)sc(C)c1C)C1CCS(=O)(=O)C1 (centres unmarked)	-40.2
CCCCn1c(N)c(N(CCOC)C(=O)CSc2n[nH]c(-c3ccc(OC)cc3)n2)c(=O)[nH]c1=O	11.7
Cc1cccc(C)c1N=Cc1c(O)n(-c2nccs2)c(=O)c2ccccc12	-2.54
COc1ccc(S(=O)(=O)NCCSCc2ccco2)cc1Cl	-3.59
Cn1c(=O)n(C)c2cc(NC(=O)CSc3nnc(-c4ccccc4O)n3-c3ccccc3)ccc21	1.62
CCOC(=O)C1(Cc2ccccc2C(F)(F)F)CCN(C2CCCC2)CC1	-43.5
Nc1nc(SCC(=O)NCc2ccccc2Cl)[nH]c(=O)c1NC(=O)c1ccccc1F	10.8
Cc1c(NC(=O)CCCCCN2C(=O)C3C4C=CC(C4)C3C2=O)c(=O)n(-c2ccccc2)n1C (centres unmarked)	15.9

SMILES	hERG current change (%, negative = inhibition) at 10uM [%]
O=C(CN(CCc1ccccc1)Cc1ccccc1)Oc1ccccc1P(=O)(O)O	6.14
O=C1c2ccccc2CN1CCNC(=S)NC1CCCCC1	-7.82
Cn1c(=O)c2c(nc3n2CC(O)CN3c2ccccc2)n(C)c1=O (centres unmarked)	11.7
CC1CN(C(=O)CCC(=O)NCCCN2CCC(Cc3ccccc3)CC2)c2cc(Cl)ccc2O1 (centres unmarked)	-72.7
CCOC(=O)Cn1cnc2c(cnn2-c2ccc(Cl)cc2)c1=O	-4.32
O=C(NC1CCCCC1)c1n[nH]c2c1CC(c1ccccc1)CC2 (centres unmarked)	13.9
CCOC(=O)C1CCN(c2ncnc3c2oc2ccc(Cl)cc23)CC1	-23.8
CCCOc1ccc(CSC(=N)N)cc1C(=O)OC.Cl	-0.181
COc1ccccc1C(=O)COC(=O)Cn1[nH]c(=O)c2ccccc2c1=O	6.78
CCOC(=O)c1[nH]c2ccccc2c1N=CN(CC)CC	-60.8
CCNc1nc(NCC)n2c(SCC(=O)c3ccccc3F)nnc2n1	2.77
CCOc1cc2[nH]c(=S)n(Cc3ccc(C(=O)O)cc3)c(=O)c2cc1OCC	13.2
OCC[C@@H]1C[C@@H](O)[C@H](O)[C@@]2(OCc3ccccc32)O1	20.8
CCOc1ccc(OCCOCCOc2ccccc2Cl)cc1	-0.437
COc1cccc(CNC(=O)CN(C)S(=O)(=O)c2ccc3c(c2)c(=O)n(C)c(=O)n3C)c1	9.12
Cc1ccc2c(c1)C1CN(C)CCC1N2Sc1ccccc1[N+](=O)[O-] (centres unmarked)	-62.8
CCOC(=O)C1CCN(Cc2nnc(-c3ccccc3C)o2)CC1.Cl	15.2
CCOC(=O)c1c(-c2ccccc2)csc1/N=C/C1C(=O)CCCC1=O	-8.46
O=C(Cc1cccc2ccccc12)NNC(=O)c1ccc(Br)o1	0.907
COCC1CCCCN1C(=O)c1ccc(OC2CCN(Cc3ccccn3)CC2)cc1 (centres unmarked)	1.34
Cc1cc(C)c2nc(N3CCN(C(=O)c4cccs4)CC3)sc2c1	0.575
CCn1c(SCC(=O)Nc2ccc(F)cc2F)nc2c(c1=O)SCC2	-23

SMILES	hERG current change (%, negative = inhibition) at 10uM [%]
CC(Oc1ccc(Cl)cc1Cl)C(=O)NC1=NN(c2ccccc2)C(=O)C1 (centres unmarked)	-7.88
CC(=O)c1cnc2cc(-c3ccc(C)cc3)nn2c1C	-4.26
Cc1cccn2c(=O)c(/C=C(\C#N)C(=O)NCc3ccccc3)c(N3CCC(C(N)=O)CC3)nc12	-29.1
CCC[C@@H](CNC)NC[C@H](Cc1ccccc1)NCCCCc1ccccc1	-6.02
Cc1cc(C(=O)Nc2c(C)nn(Cc3c(Cl)cccc3Cl)c2C)no1	-0.0826
COC(F)(C(=O)Nc1ccc2c(c1)C(=O)NC2=O)C(F)(F)F (centres unmarked)	-1.91
CCC(=O)N1CCCc2cc(S(=O)(=O)N3CCN(c4ccccc4F)CC3)ccc21	-23.7
O=C(Nc1ccc(-c2cn3ccsc3n2)cc1)c1ccc(F)c(S(=O)(=O)N2CCOCC2)c1	-22.1
Cc1cccc(NC(=O)CCSc2ccccc2)c1C	5.59
CCc1cccc(CC)c1NC(=O)COC(=O)Cc1ccsc1	21.2
COc1cc(/C=C2\SC(=Nc3ccc(N4CCOCC4)cc3)N(C)C2=O)ccc1OC(C)C(=O)O (centres unmarked)	16.9
CCn1c(SCC(=O)N2CCCC2)nc2c(c1=O)SC(C)C2 (centres unmarked)	10.2
CCOC(=O)C(CC)n1cnc2c(cnn2-c2ccc(Cl)cc2)c1=O (centres unmarked)	-25.1
O=C(CN(CCc1ccccc1)C(=O)CNS(=O)(=O)c1ccc(F)cc1)NCC1CCCO1 (centres unmarked)	0.652
CC1(C)COC(c2cccc(C3=NC(C)(C)CO3)n2)=N1	13
CS(=O)(=O)N1CCc2cc(-c3csc(NC(=O)Cc4ccccc4)n3)ccc21	4.22
Cc1onc(-c2c(F)cccc2Cl)c1-c1nnc(-c2ccc(C(F)(F)F)cc2)o1	-1.11
Cc1onc(-c2ccccc2Cl)c1C(=O)NCc1nc(-c2ccc(C(F)(F)F)cc2)no1	13.6
CCOC(=O)C(NCCc1ccccc1)(NC(C)=O)C(F)(F)F (centres unmarked)	11.3
CCOc1ccccc1NC(=O)c1cc(C(=O)c2cc(OC)ccc2O)coc1=N	-20.3
